In PubChem BioAssay AID463173 (ICCB-Longwood Screening Facility, Harvard Medical School, 2010):
Hit rate of the full screen: of about 52,000 compounds, about 4,300 (8.3%) were called active. Cut-off read from the data, not from the text of the source: active = survival mostly below about 52% (no sharp cut-off); inactive = mostly above about 56%. This is one part of the list.

These compounds were tested on DeltatarO mutant (assay: S. aureus survival, RN4220 and DeltatarO strains – OD600, teichoic acid synthesis inhibitors, primary screen (AID 463173)). Conditions: S. aureus RN4220 wild type/DeltatarO growth, OD600, 18 h, hits give low values, screened at 18.75 µg/mL (by protocol).

Q: With `Cc1ccc(Cl)cc1N1CCN(C(=O)Cn2cnc3sc(C)c(S(=O)(=O)N4CCC(C)CC4)c3c2=O)CC1` as the compound, how does the survival read?
A: active: 47%

Q: Which survival does the source give for `COc1ccccc1CNC(=O)CCS(=O)(=O)c1ccc2c(c1)CCN2C(C)=O` here?
A: inactive: 91%

Q: For `Cc1nc2nc(NCc3ccc(Cl)cc3)[nH]n2c(=O)c1Cc1ccccc1`, which survival is on record?
A: active: 40%

Q: With `Cc1ccc(-n2ncc3c(NCCC4=CCCCC4)ncnc32)cc1` as the compound, how does the survival read?
A: active: 20%

Q: How did the survival turn out when `COC(=O)NCC(c1cccnc1)N1CCN(c2ccc(F)cc2)CC1` (configuration not stated) was run?
A: inactive: 83%

Q: For `Cc1ccc(Cl)cc1NC(=O)C(C)n1nc(-c2ccccc2)ccc1=O` (configuration not stated), which survival is on record?
A: active: 20%

Q: For `CCc1ccccc1NC(=O)CCNS(=O)(=O)c1ccc2c(c1)CCN2C(=O)C1CC1`, which survival is on record?
A: inactive: 92%

Q: `CC(C)OC(=O)CC12CN(C)CC(CC(=O)OC(C)C)(CN(C)C1)C2=O` was tested. Which survival did it give?
A: inactive: 79%

Q: `COc1ccc(C(=O)Nc2nnc(SCc3cc(=O)c4cc(C)cc(C)c4[nH]3)s2)cc1` was tested. Which survival did it give?
A: inactive: 94%

Q: With `Cc1ccc(CNC(=O)CCCn2c(=O)c3ccccc3n(CC(=O)Nc3ccc(C)c(C)c3)c2=O)cc1` as the compound, how does the survival read?
A: inactive: 78%

Q: `C=CCNC(=O)C1CC(=O)N(c2ccc(OCC(=O)Nc3ccc(F)c(Cl)c3)cc2)C1` (configuration not stated) was tested. Which survival did it give?
A: inactive: 89%

Q: Which survival does the source give for `CCOc1ccc(CCNC(=O)CCCn2c(=O)c3cccn3c3ccccc32)cc1` here?
A: inactive: 72%

Q: Which survival does the source give for `Cc1ccc2c(CC(=O)Nc3ccc(S(=O)(=O)N4CCCCC4)cc3)coc2c1` here?
A: inactive: 60%

Q: How did the survival turn out when `Cc1ccc(Cl)cc1NC(=O)Cn1c(=O)oc2cc(S(=O)(=O)N3CCCC3)ccc21` was run?
A: inactive: 81%

Q: For `C=CCn1c(C)c(C=C(C#N)C#N)c2ccccc21`, which survival is on record?
A: inactive: 99%

Q: Which survival does the source give for `Cc1cc(C)c2c(=O)nc(SCc3ccccc3C)n(C3CC3)c2n1` here?
A: inactive: 90%

Q: With `Cc1ccc(-n2ncc3c(Nc4cccc(C)c4C)ncnc32)cc1` as the compound, how does the survival read?
A: inactive: 94%

Q: `CCOc1ccccc1N(C)C(=O)C1CCCN(c2ncnc3c2nc2n3CCCCC2)C1` (configuration not stated) was tested. Which survival did it give?
A: inactive: 83%

Q: Which survival does the source give for `CCC1=[N+](CC(=O)c2ccccc2)CCn2cccc21` here?
A: inactive: 110%

Q: `COc1ccc(C(=O)OC2=C(C(=O)c3ccccc3)N(C)S(=O)(=O)c3ccccc32)cc1OC` was tested. Which survival did it give?
A: inactive: 131%

Q: Which survival does the source give for `COc1ccccc1N1CCN(S(=O)(=O)c2c(C)sc3ncn(CC(=O)N(C)c4ccc(Cl)cc4)c(=O)c23)CC1` here?
A: inactive: 65%

Q: With `CCNC(=O)c1c(NC(=O)Cc2coc3cc(C)cc(C)c23)sc2c1CCCC2` as the compound, how does the survival read?
A: inactive: 69%

Q: `O=C1CCCN1c1ccc(S(=O)(=O)N2CCCCC2)cc1` was tested. Which survival did it give?
A: inactive: 93%

Q: Which survival does the source give for `Oc1c(C(c2ccccc2F)N2CCN(Cc3ccccc3)CC2)sc2nc(-c3ccco3)nn12` (configuration not stated) here?
A: inactive: 89%

Q: Which survival does the source give for `Cc1c(C(=O)N2CCC(c3nc4ccccc4s3)CC2)oc2ccc(Cl)cc12` here?
A: inactive: 72%

Q: For `CCOC(=O)c1c(C)c(-c2ccccc2)n(CC(=O)Nc2cc(C)ccc2OC)c1C`, which survival is on record?
A: inactive: 66%

Q: For `Cc1ccccc1CN1CCC(CNc2ncnc3onc(-c4ccc(F)cc4)c23)CC1`, which survival is on record?
A: inactive: 109%

Q: `COc1cc(NC(=O)NC(C)c2c(-n3cccc3)sc3c2CCCC3)cc(OC)c1OC` (configuration not stated) was tested. Which survival did it give?
A: inactive: 57%

Q: With `CCCCN(CC)CCNC(=O)c1cn(C)c(=O)c2c1c1ccccc1n2C` as the compound, how does the survival read?
A: inactive: 65%

Q: Which survival does the source give for `CCc1cccc(-n2nnc(-c3nsc(NC(=O)c4cccs4)n3)c2C)c1` here?
A: active: -5%

Q: For `CC(=O)Nc1ccc2nc(-c3cc(C)ccc3C)[nH]c2c1`, which survival is on record?
A: inactive: 118%

Q: For `Cc1cc(N2CCC(C(N)=O)CC2)nc(-c2ccccc2)n1`, which survival is on record?
A: inactive: 96%

Q: Which survival does the source give for `Cc1ccc(Cl)cc1NC(=O)Cn1c(=O)n(CCC(=O)NCc2ccc3c(c2)OCO3)c(=O)c2sccc21` here?
A: active: 79%

Q: `CCCC(=O)Nc1nnc(S(=O)(=O)N2CCCCCC2)s1` was tested. Which survival did it give?
A: inactive: 91%

Q: With `COc1ccc(C2C(C(=O)Nc3ccccc3)=C(C)Nc3nc(SCC(=O)c4ccc(C)cc4)nn32)cc1` (configuration not stated) as the compound, how does the survival read?
A: inactive: 71%

Q: With `CC1=C(c2ccc(F)cc2)S(=O)(=O)N=C1N1CCC(C(=O)NCCc2ccccc2C)CC1` as the compound, how does the survival read?
A: inactive: 85%

Q: For `CC(C)Cc1ccc(S(=O)(=O)N2CCN(Cc3noc(CCC(=O)N4CCCCC4)n3)CC2)cc1`, which survival is on record?
A: inactive: 101%

Q: `O=C(NCc1ccc(Cl)cc1)c1ccc(CN2CCOCC2)cc1` was tested. Which survival did it give?
A: inactive: 73%

Q: For `Cc1ccc2[nH]c(-c3ccccc3)c(CN(C)C)c(=O)c2c1`, which survival is on record?
A: inactive: 98%

Q: Which survival does the source give for `CCOC(=O)c1cn(CC(=O)Nc2ccc(OC)cc2OC)nn1` here?
A: inactive: 83%

Q: Which survival does the source give for `Fc1ccc(Nc2ncnc3onc(-c4ccc(Cl)cc4)c23)cc1Cl` here?
A: inactive: 72%

Q: With `CCOc1ccc(CCNC(=O)c2ccc3c(c2)N(Cc2ccc(C)cc2)CCS3)cc1` as the compound, how does the survival read?
A: inactive: 78%

Q: With `O=C(C1CCCN(S(=O)(=O)c2ccc(Br)s2)C1)N1CCN(c2ccccc2F)CC1` (configuration not stated) as the compound, how does the survival read?
A: inactive: 77%

Q: How did the survival turn out when `CCN(CC)CCCNc1sc(S(=O)(=O)c2ccccc2)nc1S(=O)(=O)c1ccc(Cl)cc1` was run?
A: inactive: 75%

Q: `CCOC(=O)c1c(C)[nH]c(CCC(=O)NC(C)c2ccccc2)c1C` (configuration not stated) was tested. Which survival did it give?
A: inactive: 94%

Q: For `COc1ccc(C)cc1NC(=O)NC(C)c1c(-n2cccc2)sc(C)c1C` (configuration not stated), which survival is on record?
A: inactive: 44%

Q: With `CCN(C(=O)c1sc2nc3n(c(=O)c2c1C)CCCCC3)c1ccc(OC)cc1` as the compound, how does the survival read?
A: inactive: 58%

Q: How did the survival turn out when `COc1cc(OC)c(NC(=O)Nc2cccc(OCc3cc(=O)n4ccccc4n3)c2)cc1Cl` was run?
A: inactive: 66%

Q: `Cc1cccc(C)c1NCc1nnc(SCC#N)n1-c1ccccc1` was tested. Which survival did it give?
A: inactive: 92%

Q: Which survival does the source give for `Cc1ccc2[nH]c(=O)c(CN(Cc3ccccc3)C(=O)c3ccco3)cc2c1` here?
A: inactive: 103%

Q: Which survival does the source give for `COc1ccc(-n2cc(-c3ccccc3)c3c(Nc4ccc(OC)c(OC)c4)ncnc32)cc1` here?
A: inactive: 100%

Q: `CCOc1cc2c(cc1OCC)C(CC(=O)O)N(C(=O)Nc1ccccc1C(F)(F)F)CC2` (configuration not stated) was tested. Which survival did it give?
A: inactive: 67%

Q: For `Cc1cc(C)nc(-n2nc(C)c3c2NC(=O)CC3c2cccc(O)c2)n1` (configuration not stated), which survival is on record?
A: inactive: 72%

Q: For `Cc1cc2nn(-c3ccc(F)cc3)nc2cc1NC(=O)c1cccc2c(Cl)cccc12`, which survival is on record?
A: inactive: 59%

Q: How did the survival turn out when `C#CCn1c(O)c(N=NC(=O)c2ccccc2-n2cccc2)c2ccccc21` was run?
A: inactive: 60%

Q: With `O=C(O)C1C2C=CC(C2)C1C(=O)NC1CCN(Cc2ccccc2)CC1` (configuration not stated) as the compound, how does the survival read?
A: inactive: 76%

Q: For `CC1(c2ccccc2)CC(C)(C)N(C(=O)c2cccc(Cl)c2)c2ccccc21` (configuration not stated), which survival is on record?
A: active: 8%

Q: Which survival does the source give for `Cc1cccc(N2C(=O)NC(=O)/C(=C\c3cn(CC(=O)NCc4ccco4)c4ccccc34)C2=O)c1` here?
A: inactive: 97%

Q: How did the survival turn out when `c1ccc2c(c1)COC(CCN1CCN(CCC3OCc4ccccc4CO3)CC1)OC2` was run?
A: inactive: 85%

Q: For `COc1ccccc1NC(=O)c1ccc(CN2C(=O)C(C)=C(c3ccc(C)c(C)c3)S2(=O)=O)cc1`, which survival is on record?
A: inactive: 83%

Q: For `Cc1noc(-c2ccc(NC(C)c3ccccc3)c([N+](=O)[O-])c2)n1` (configuration not stated), which survival is on record?
A: inactive: 70%

Q: For `CCOC(=O)CC(=O)CSc1nc2ccsc2c(=O)n1Cc1ccccc1`, which survival is on record?
A: inactive: 118%

Q: Which survival does the source give for `CCC(=O)N1CCc2cc(Br)cc(S(=O)(=O)N3CCN(c4ccccc4OC)CC3)c21` here?
A: inactive: 56%

Q: For `Cc1ccc(CNC(=O)c2nc(SCc3ccccc3C)ncc2Cl)cc1`, which survival is on record?
A: inactive: 76%

Q: `Cc1nc2ccn(Cc3cccs3)c(=O)c2cc1C(=O)N1CCN(c2ccccc2F)CC1` was tested. Which survival did it give?
A: inactive: 55%

Q: Which survival does the source give for `Cc1ccc(NS(=O)(=O)c2ccc3[nH]c4c(c3c2)CCCC4)cc1N(C)C` here?
A: inactive: 70%

Q: With `CC1S/C(=N\NC(=O)CNc2cccc(Cl)c2)N(c2ccccc2)C1=O` (configuration not stated) as the compound, how does the survival read?
A: inactive: 82%

Q: Which survival does the source give for `COc1cccc(NC(=O)c2ccc3c(c2)CCN3S(C)(=O)=O)c1` here?
A: inactive: 84%

Q: `CC1CCN(S(=O)(=O)c2ccc3c(c2)N(CC(=O)NCCc2ccccc2)C(=O)CO3)CC1` was tested. Which survival did it give?
A: inactive: 93%

Q: How did the survival turn out when `Cc1ccc(CNC(=O)c2ccc(CSCc3cccc(C)c3)o2)cc1` was run?
A: inactive: 93%

Q: With `Cc1cc(C)cc(-n2c(SCC(=O)N3CCOCC3)nc3c([nH]c4ccccc43)c2=O)c1` as the compound, how does the survival read?
A: inactive: 128%

Q: With `Cc1ccc(C)c(OCCn2c(CCNC(=O)C3CCCCC3)nc3ccccc32)c1` as the compound, how does the survival read?
A: inactive: 59%

Q: With `COc1cccc(-c2nnc(-c3ccccc3NC(=O)c3ccc(F)cc3F)o2)c1` as the compound, how does the survival read?
A: inactive: 78%

Q: Which survival does the source give for `CNC(=O)C1CCC(Cn2c(=O)c3sccc3n(CC(=O)Nc3ccc(C)c(F)c3)c2=O)CC1` (configuration not stated) here?
A: inactive: 80%

Q: How did the survival turn out when `COc1ccc(C)cc1NC(=O)C1CCCN(S(=O)(=O)c2ccc3[nH]c(=O)ccc3c2)C1` (configuration not stated) was run?
A: inactive: 77%

Q: How did the survival turn out when `O=C(COc1ccc2ccccc2c1)Nc1ccc(NC(=O)c2ccco2)cc1` was run?
A: inactive: 86%

Q: For `COc1cc(NC(=O)CN2C(=O)CN(C)C(=O)c3ccccc32)cc(OC)c1OC`, which survival is on record?
A: inactive: 120%

Q: How did the survival turn out when `CCOc1cc2[nH]c(=O)n(CCCC(=O)N3CCN(c4ccc(OC)cc4)CC3)c(=O)c2cc1OCC` was run?
A: inactive: 68%

Q: For `CCOC(=O)c1c(C)[nH]c(C)c1S(=O)(=O)N1CCC(C(=O)Nc2ccc(C)cn2)CC1`, which survival is on record?
A: inactive: 72%

Q: How did the survival turn out when `CCOc1ccc(CCNC(=O)Cn2ncc3c(=O)oc4ccc(C)cc4c32)cc1` was run?
A: inactive: 79%

Q: For `CCn1c2ccccc2c2cc(NC(=O)COc3cccc(C)c3)ccc21`, which survival is on record?
A: active: 27%

Q: `CCOc1ccc(N(CC(=O)NCc2ccc(C)cc2)S(=O)(=O)c2c(C)noc2C)cc1` was tested. Which survival did it give?
A: inactive: 92%

Q: For `O=C(c1ccc(CSc2nc3ccncc3n2Cc2cccc(F)c2)cc1)N1CCCCC1`, which survival is on record?
A: inactive: 73%

Q: With `CC1=C(c2ccc(C(C)C)cc2)S(=O)(=O)NC1=NCc1ccccc1Br` as the compound, how does the survival read?
A: inactive: 75%

Q: How did the survival turn out when `Cc1cccc(NC(=O)Cn2c(=O)nc(-c3ccccc3)c3ccccc32)c1C` was run?
A: inactive: 95%

Q: How did the survival turn out when `O=C(NCc1ccco1)C(c1ccco1)N(C(=O)Cn1nnc2ccccc21)c1ccccc1` (configuration not stated) was run?
A: inactive: 65%

Q: For `O=C(/C=C/c1ccco1)ON1C(=O)c2ccccc2C1=O`, which survival is on record?
A: inactive: 91%
